About 4,300 (8.3%) of roughly 52,000 compounds were called active. Cut-off read from the data, not from the text of the source: active = survival mostly below about 52% (no sharp cut-off); inactive = mostly above about 56%. The list shows a part of the results.

This assay relates to DeltatarO mutant. The assay is described as follows: S. aureus survival, RN4220 and DeltatarO strains – OD600, teichoic acid synthesis inhibitors, primary screen (AID 463173). The settings on record: S. aureus RN4220 wild type/DeltatarO growth, OD600, 18 h, stronger effect = lower value, screened at 18.75 µg/mL (by protocol).
On to `CCOc1ccc(Nc2sc(C(=O)c3ccc4c(c3)OCO4)c(N)c2S(=O)(=O)c2ccc(C)cc2)cc1`, for which the survival was inactive: 77%.

For the compound `Cn1nc(C(=O)N2CCN(c3ccc(Cl)cc3)CC2)c2c1-c1ccccc1S(=O)(=O)C2`, the survival is inactive: 51%.

Turning to `COc1ccccc1CNC(=O)CSc1cc(=O)n(C)c2ccccc12`, the survival is inactive: 94%.

On to `COc1ccc(-c2cc(C(F)(F)F)nc(NCc3ccc(Cl)cc3)n2)cc1`, for which the survival is active: 3%.

Take `O=C(Nc1cc(-c2nc3ccccc3o2)ccc1Cl)c1ccc(Br)o1`: the survival was active: 54%.

For `Cc1c(C(=O)NCc2ccccc2)sc2nc[nH]c(=O)c12`, the survival is inactive: 94%.

With `Cc1ccc(CCNc2nc3c(S(=O)(=O)c4ccccc4)nnn3c3ccsc23)cc1`, the survival was active: 62%.

In the case of `COc1cc(-c2noc(-c3ccc(N(C)C)c([N+](=O)[O-])c3)n2)cc(OC)c1OC`, the survival is inactive: 77%.

Regarding `Cc1ccccc1Cn1c2ccccc2c2cnn(CC(=O)NCCCc3ccccc3)c(=O)c21`, the survival is inactive: 84%.

For the compound `N#Cc1ccc(CSCC(=O)NN=C2CCCC2)cc1`, the survival was inactive: 65%.

As for `O=C(Cn1c(-c2cccs2)cc2cc(F)ccc21)N1CCN(c2cccc(Cl)c2)CC1`, the survival is inactive: 91%.

For the compound `COc1cccc(Cc2nc3ccccc3nc2SCC(=O)N2CCN(c3ccccc3)CC2)c1`, the survival was inactive: 92%.

Consider `COc1ccc(CN(Cc2ccco2)C(=O)c2ccccc2F)cc1`, for which the survival was inactive: 74%.

For the compound `CCn1c(CC2C(=O)Nc3ccccc32)nc2ccccc2c1=O` (stereo not given), the survival is inactive: 76%.

Consider `Cc1cccc(C)c1NS(=O)(=O)c1ccc2c(c1)[C@H]1C=CC[C@H]1[C@@H](c1ccc(Cl)cc1)N2`, for which the survival was inactive: 53%.

Regarding `CCOc1ccc(C2C(C(=O)Nc3ccccc3OC)=C(C)Nc3c(C(=O)Nc4cccc(C)c4)cnn32)cc1` (stereo not given), the survival is inactive: 88%.

With `O=C1CC(c2nnc(Cc3cccc(Cl)c3)o2)CN1c1ccccc1` (stereo not given), the survival was inactive: 126%.

For `COc1cccc(-c2cc(C(=O)Nc3ccc(Br)c(C)c3)[nH]n2)c1`, the survival was inactive: 78%.

For the compound `Cc1ccc2c(c1)cc1c(=O)n(Cc3ccc(Cl)cc3)nc(C)n12`, the survival is inactive: 96%.

Consider `COc1ccc(-n2c(=O)c3ccc(C(=O)NCc4ccc(C)cc4)cc3n(Cc3cccc(Cl)c3)c2=O)cc1`, for which the survival is inactive: 75%.

Turning to `CN(C)CCNc1ncnc2ccccc12`, the survival was inactive: 81%.

Take `Cc1oc(-c2ccc(C(=O)Nc3cccc(C(F)(F)F)c3)cc2)nc1CSc1ccccc1`: the survival is inactive: 90%.

On to `COc1ccc(Nc2nc3ccc(Cl)cc3n3nnnc23)cc1OC`, for which the survival is inactive: 102%.

Consider `CCc1nnc2c3ccccc3nc(Nc3ccccc3OC)n12`, for which the survival is inactive: 57%.

Turning to `Cc1cccc(N2CCN(S(=O)(=O)c3ccc4oc(=O)c5ncn(C)c5c4c3)CC2)c1C`, the survival was inactive: 77%.

These data come from PubChem BioAssay AID463173 (ICCB-Longwood Screening Facility, Harvard Medical School, 2010).
